# Laboratory results: PubChem BioAssay AID1345082 (National Center for Advancing Translational Sciences (NCATS), 2018)
# The whole screen tested about 94,000 compounds, of which about 4,000 (4.3%) were called active. This list was built around the results that the source calls inconclusive (neither active nor inactive); the mix of calls is not that of the screen. Calls come from the whole dose curve; as a rule, active = well fitted inhibition curve with a large enough effect; inconclusive = small, poorly fitted or top-dose-only effect; inactive = no such curve, though single readings can be large or run the other way. Where the call is inconclusive, the potency comes from a doubtful curve fit.
# Assay: Cytotoxic Profiling in NIH 3T3 Cell Line of Diverse Libraries Using Quantitative High-Throughput Screening; note: nearly all actives have a fitted effect of over 55% in size
# Conditions: NIH 3T3 viability, CellTiter-Glo ATP luminescence, 48-72 h; series mostly up to 96.7 µM
# Summary of the method: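 Mouse fibroblast NIH 3T3 cells, 400 per well, received compound via pintool and were incubated for 48 or 72 hr prior to CellTiter-Glo ATP luminescence measurement.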
# Potency is the fitted concentration of half-maximal effect; tags give direction and shape of the fitted curve.
row,Structure (SMILES),Potency
1,Cc1cc(C(=O)N2CC(Cn3c(C)cnc3-c3ccncc3)C2)nn1C,inactive
2,COc1ccc(C(=O)N2CCC3(CC2)C(OC)C(=O)N3CC2CC2)c(OC)c1 (configuration not stated),inactive
3,O=C(CCC1CCCC1)N1CCC2(CC1)CC(N(Cc1ccc(F)cc1)C1CC1)CCO2 (configuration not stated),"inconclusive: 44.7 µM [inhibitor, partial curve, poor fit]"
4,Cc1oc(-c2cccc(C(F)(F)F)c2)nc1CN1CCCC(CO)C1 (configuration not stated),inactive
5,CN1CCOc2nc(-c3cccc(OC(F)(F)F)c3)ncc2C1=O,"inconclusive: 89.1 µM [inhibitor, partial curve, poor fit]"
6,Cc1c(-c2ccccc2F)[nH]c2ccc(CNC(=O)C3CCNC3)cc12 (configuration not stated),"inconclusive: 50.1 µM [inhibitor, partial curve, poor fit]"
7,COC(=O)[C@@H]1Cc2ncn(Cc3ccc(OC)cc3)c2CN1S(C)(=O)=O,inactive
8,Cn1ncc2c(C(=O)NCCc3ccccc3F)cc(-c3ccsc3)nc21,inactive
9,COCCN1Cc2[nH]nc(-c3ccccc3)c2CC1=O,"inconclusive: 126 µM [inhibitor, partial curve, poor fit]"
10,COc1ccc(-c2ccc3ncc(Nc4ccccc4Cl)n3n2)cn1,inactive
11,Cn1cc(CN2C[C@H](C(=O)Nc3cccnc3)C[C@@H]2c2cccc(C(F)(F)F)c2)cn1,"inconclusive: 89.1 µM [inhibitor, single point]"
12,Cc1noc(C)c1CC(=O)NC1CCCc2c1[nH]c1ccccc21 (configuration not stated),active: 39.8 µM
13,CN1CCC2(Cc3ccccc3CN(C(=O)Cc3cccc(Cl)c3)C2)C1 (configuration not stated),"inconclusive: 70.8 µM [inhibitor, single point]"
14,COc1ccc(-c2cc(N3CCCN(C(=O)c4ccc(C)c(C)c4)CC3)n[nH]2)cc1,"inconclusive: 50.1 µM [inhibitor, partial curve, poor fit]"
15,COc1ccc2nc([C@H]3CCN(Cc4ccc(NC(C)=O)cc4)C3)[nH]c2c1,"inconclusive: 112 µM [inhibitor, single point]"
16,O=C1Cc2c(-c3cccc(N4CCOCC4)c3)n[nH]c2CN1CCOc1ccccc1,"inconclusive: 56.2 µM [inhibitor, partial curve, poor fit]"
17,CNC(=O)c1cc(C2CC2)nc2c1c(C1CCCN([S+](=O)([O-])C(C)C)C1)nn2C (configuration not stated),inactive
18,Cc1ccc(-c2cc(-c3cccnc3)c3cncn3c2)cn1,active: 39.8 µM
19,COc1cccc(N2CC(C(=O)N3CCC(C(=O)NCCc4ccc(F)cc4)C3)NC2=O)c1 (configuration not stated),inactive
20,F[C@@H]1CN(Cc2ccc3c(c2)OCCO3)C[C@@H]1OCc1nc2ccccc2[nH]1,"inconclusive: 56.2 µM [inhibitor, partial curve, poor fit]"
21,NC(=O)Cc1c[nH]c2ncc(-c3ccc(Oc4ccccc4)cc3)cc12,active: 22.4 µM

row,Structure (SMILES),Potency
1,O=C(O)CCC(=O)N1CCC2(CC1)Cc1ccccc1N(C(=O)C1CCCC1)C2,"inconclusive: 70.8 µM [inhibitor, partial curve, poor fit]"
2,Clc1cnccc1CN1CCNc2cc(-c3ccccc3)ncc2C1,"inconclusive: 20 µM [inhibitor, full curve, poor fit]"
3,COCc1cc(=O)n(CC(=O)Nc2ccccc2)c(N2CCOCC2)n1,"inconclusive: 17.8 µM [inhibitor, partial curve, poor fit]"
4,COc1ccc(Cn2c(=O)c(C(=O)NCc3ccc(C(F)(F)F)cc3)nc3cccnc32)cc1,"inconclusive: 39.8 µM [inhibitor, partial curve, poor fit]"
5,COc1cc(NC(=O)NC[C@H]2O[C@@H](CO)[C@@H](O)[C@@H]2N(C)Cc2ccccc2)cc(OC)c1,inactive
6,O=C(NCCc1ccccc1)c1ccc2oc(-c3ccnc(Cl)c3)nc2c1,inactive
7,O=c1c2nc(Nc3cccc(F)c3)ccc2ncn1Cc1ccccc1,"inconclusive: 56.2 µM [inhibitor, partial curve, poor fit]"
8,Cc1ccc(SC2CCN(Cc3nc(CCc4ccccc4)no3)CC2)cc1,"inconclusive: 35.5 µM [inhibitor, partial curve]"
9,CC1(C)[C@H](Cc2cc(COc3ccccc3)on2)C[C@@H]1NC(=O)Nc1ccccc1,"inconclusive: 17.8 µM [inhibitor, full curve, poor fit]"
10,OC[C@@H]1CNC[C@H]1C1CCN(Cc2ccc(Br)cc2F)CC1,"inconclusive: 44.7 µM [inhibitor, partial curve, poor fit]"
11,CC(C)Cn1c(=O)c(C(=O)N2CCN(C(=O)Nc3ccccc3)CC2)nc2cccnc21,inactive
12,O=C(NCCc1ccccc1)c1ccc2nnc(-c3ccc(F)cc3)n2c1,"inconclusive: 39.8 µM [inhibitor, partial curve, poor fit]"
13,CNC(=O)[C@@H]1C[C@@H](n2cc(CNC(=O)Nc3cc(F)ccc3F)nn2)CN1,inactive
14,COc1ccc(-c2noc(CN(C)CCOc3ccc(C)cc3)n2)c(OC)c1OC,"inconclusive: 89.1 µM [inhibitor, partial curve, poor fit]"
15,O=C(c1cccc(F)c1)N1CC(Oc2cccc(-c3nc(-c4ccccc4)no3)c2)C1,"inconclusive: 44.7 µM [inhibitor, partial curve, poor fit]"
16,CNC(=O)c1cc(C)nc2onc(C3CCN(C(=O)c4cccnc4)C3)c12 (configuration not stated),inactive
17,COCCNC(=O)c1ccc(OC2CCN(C/C=C/c3ccco3)CC2)c(Cl)c1,"inconclusive: 56.2 µM [inhibitor, partial curve, poor fit]"
18,COc1ccc(-c2ccnc(-c3nnc(C)n3CCN3CCOCC3)c2)cc1OC,active: 100 µM
19,C#CCN(C)C(=O)[C@@H](C)C1CC[C@@]2(C)Cc3sc(NC(=O)C4CC4)nc3[C@@H](C)[C@@H]2[C@H]1O (some centres not stated),"inconclusive: 100 µM [inhibitor, partial curve, poor fit]"
20,Cc1nn(CC(=O)NCc2ccc(F)cc2F)c(=O)c2nc(-c3ccccc3)sc12,"inconclusive: 2.82 µM [inhibitor, full curve, poor fit]"
21,O=C(Cc1ccccc1)NCC1CN(Cc2ccc(C(=O)O)cc2)CC12CN(c1ccccc1)C2 (configuration not stated),"inconclusive: 50.1 µM [inhibitor, partial curve, poor fit]"

row,Structure (SMILES),Potency
1,O=C(Nc1cccc(-c2ccc(N3CCCC3)nn2)c1)Nc1c(F)cccc1F,"inconclusive: 35.5 µM [inhibitor, partial curve]"
2,COCC1CCCN(Cc2nc(C(c3ccccc3)c3ccccc3)no2)C1 (configuration not stated),"inconclusive: 89.1 µM [inhibitor, single point]"
3,COc1ccc(-c2nc(C3CC(=O)N(C4CCCCC4)C3)no2)c(C)c1 (configuration not stated),"inconclusive: 50.1 µM [inhibitor, partial curve, poor fit]"
4,O=C(NCCc1ccncc1)c1cccc2c1CCN2C(=O)Nc1ccc(F)cc1,"inconclusive: 50.1 µM [inhibitor, partial curve, poor fit]"
5,O=C1CCC2(CCN1)CCN(C(=O)C1CCCCC1)CC2,"inconclusive: 20 µM [inhibitor, partial curve, poor fit]"
6,Cc1ccsc1C(=O)N1CCN(c2cc(-c3ccccc3)[nH]n2)CC1,"inconclusive: 35.5 µM [inhibitor, partial curve]"
7,COc1ccc(-c2cn3cc(C(=O)N4CCN(C(C)=O)CC4)nc3s2)cc1,inactive
8,CCc1nc2c(c(-c3ccc(O)cc3)n1)CN(CCC(C)C)CC2,"inconclusive: 100 µM [inhibitor, partial curve, poor fit]"
9,O=C(c1cccc2[nH]ccc12)N1CCC(n2cc(-c3nc(-c4ccccc4)no3)nn2)C1 (configuration not stated),"inconclusive: 44.7 µM [inhibitor, partial curve, poor fit]"
10,O=C1COc2ccc(N3CCOCC3)nc2CN1Cc1ccc(F)cc1,"inconclusive: 56.2 µM [inhibitor, partial curve, poor fit]"
11,CC(C)CN1CCC(O)(c2csc(CN3CCOCC3)n2)CC1,inactive
12,N#Cc1cccc(C(=O)N[C@H]2[C@H](O)[C@H](O)C[C@@H]2c2cccnc2)c1,inactive
13,N#Cc1ccc(CNC(=O)[C@@H]2Cc3nc[nH]c3CN2Cc2cc3ccccc3o2)cc1,"inconclusive: 126 µM [inhibitor, single point]"
14,Cc1ccc(-c2cc(N3CCC(CNC(=O)c4ccc5nc[nH]c5c4)CC3)n[nH]2)cc1,"inconclusive: 17.8 µM [inhibitor, full curve]"
15,OCC1(CN2CCCC2)CCN(Cc2cc(F)cc(Cl)c2)CC1,"inconclusive: 50.1 µM [inhibitor, partial curve, poor fit]"
16,Cc1cc2nc(CO[C@H]3CN(C4CCC4)C[C@H]3F)[nH]c2cc1C,"inconclusive: 126 µM [inhibitor, single point]"
17,Cc1ncoc1C(=O)NCc1cc(Cl)cc2c(C)c(-c3ccccc3)[nH]c12,"inconclusive: 56.2 µM [inhibitor, partial curve, poor fit]"
18,COc1cccc(-c2cccc(C(=O)N3CCN([S+](=O)([O-])c4ccccc4)CC3)c2)c1,"inconclusive: 44.7 µM [inhibitor, partial curve, poor fit]"
19,O=C(NC1CCCN(c2cc(-c3ccccc3)[nH]n2)C1)c1ccc(Br)cc1 (configuration not stated),active: 31.6 µM
20,CN1C(=O)[C@H](OC(N)=O)[C@@H](C(=O)Nc2ccccc2)C12CCN(C(=O)c1cccc(C#N)c1)CC2,"inconclusive: 56.2 µM [inhibitor, partial curve, poor fit]"
